PubChem BioAssay (Tox21)
Several values for one entry are separate records, joined by “and”; a condition that tells them apart may be missing. Identical values can stand only once. This list was built around the results that the source calls inconclusive (neither active nor inactive); the mix of calls is not that of the screen. For part of these data: A potency beside an inconclusive call is a rough fit, not a confirmed value. A structure can be active in one record and inactive in another. Activity calls are given as the source filed them. Unless noted, calls follow the shape of the dose curve; as a rule, active = well fitted curve in the direction sought with a large enough effect in the repeat runs; inconclusive = weak or mixed curves; inactive = no such curve, though single readings can be large; an effect the other way counts as inactive or inconclusive.

Tests used:
[1] = qHTS assay to identify small molecule that activate the aryl hydrocarbon receptor (AhR) signaling pathway - cell viability counter screen (AID 743086); also: nearly all actives have a fitted effect of over 45% in size
Method in brief: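 HepG2-AhR-luc (HG2L7.5c1) cells, 4000/well, were preincubated 5 h at 37C, exposed to compound in qHTS format for 24 hr at 37C, then given CellTiter-Fluor for 30 min; viability was read as fluorescence in the reporter wells.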

[2] = biological target: Peroxisome proliferator-activated receptor gamma (Homo sapiens) (UniProt P37231); experiment: qHTS assay to identify small molecule agonists of the peroxisome proliferator-activated receptor gamma (PPARg) signaling pathway (AID 743094; active = well fitted activation curve with a large enough effect in the signal ratio in the repeat runs, not every such curve was filed as active; inconclusive = weak or mixed curves, or effect the other way; inactive = no such curve, though single readings can be large or run the other way; the % refers to the signal ratio; as to activation: % is scaled to controls: 0 for no effect and ±100 for the full control effect); details: HEK293H PPARg-UAS-bla, beta-lactamase FRET ratio, 17 h; activation: at 57 µM (top of the series) unless noted
Method in brief: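 HEK293H PPARg-bla cells, 5 h settle at 37C/5% CO2; compound (DMSO) 17 h, 37C; B/G FRET substrate 1 h RT; fluorescence intensity read-out. qHTS format.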

[3] = biological target: Peroxisome proliferator-activated receptor gamma (Homo sapiens) (UniProt P37231); experiment: qHTS assay to identify small molecule antagonists of the peroxisome proliferator-activated receptor gamma (PPARg) signaling pathway (AID 743191; calls by dose curve; also: nearly all actives have a fitted effect of over 30% in size; as to ratio activity, negative = inhibition: % is scaled to controls: 0 for no effect and ±100 for the full control effect); details: HEK293H PPARg-UAS-bla, beta-lactamase ratio, antagonist, 17 h; ratio activity, negative = inhibition: at 62.6 µM (top of the series) unless noted
Method in brief: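 GeneBLAzer PPARg UAS-bla HEK293H cells carrying a UAS-driven beta-lactamase reporter were plated at 3000 cells/well, preincubated 5 h at 37C, then given compound for 17 h at 37C; LiveBLAzer B/G FRET substrate was read after 1 h at room temperature.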

[4] = qHTS assay to identify small molecule antagonists of the peroxisome proliferator-activated receptor gamma (PPARg) signaling pathway - cell viability counter screen (AID 743194); details: PPARg-bla HEK293H viability, CellTiter-Glo luminescence, 17 h, co-treated with 50 nM rosiglitazone; activity change, negative = cytotoxicity: at 62.6 µM (top of the series) unless noted; also: nearly all actives have a fitted effect of over 55% in size
Method in brief: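 PPARg-UAS-bla HEK293H cells were plated, rested 5 h at 37 C, then treated with compounds plus rosiglitazone (50 nM final) for 17 h at 37 C; viability was then read by CellTiter-Glo luminescence after 30 min at room temperature.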

[5] = qHTS assay for small molecule agonists of the antioxidant response element (ARE) signaling pathway - cell viability counter screen (AID 743203; calls by dose curve; also: nearly all actives have a fitted effect of over 55% in size); details: ARE-bla HepG2 viability, CellTiter-Glo luminescence, 16 h; viability change, negative = cytotoxic: at 73.3 µM (top of the series)
Method in brief: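 Luminescence read-out (CellTiter-Glo, 30 min at room temperature) measured cell viability in the same wells as the ARE beta-lactamase reporter. HepG2 ARE-bla cells were treated with compounds for 16 hrs at 37C/5% CO2.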

[6] = qHTS assay for small molecule activators of the heat shock response signaling pathway - cell viability counter screen (AID 743209); details: HSE-bla HeLa viability, CellTiter-Glo luminescence, 5 h; activity change, negative = cytotoxicity: at 62.6 µM (top of the series) unless noted; also: nearly all actives have a fitted effect of over 50% in size
Method in brief: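 HSE-bla HeLa; 1500 cells/well; overnight 37 C, 5% CO2; compound 5 h 37 C; LiveBLAzer B/G substrate 2.5 h RT; CellTiter-Glo 30 min RT; luminescence.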

[7] = qHTS assay to identify small molecule agonists of the peroxisome proliferator-activated receptor delta (PPARd) signaling pathway - cell viability counter screen (AID 743211); details: PPARd-bla HEK293H viability, CellTiter-Glo luminescence, 17 h; activity change, negative = cytotoxicity: at 62.6 µM (top of the series); also: nearly all actives have a fitted effect of over 55% in size
Method in brief: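 PPARd-bla HEK293H cells (UAS-beta-lactamase reporter) were treated with compounds for 17 h at 37 C. Viability was then read in the same wells by CellTiter-Glo luminescence after 30 min at room temperature.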

[8] = qHTS assay to identify small molecule antagonists of the peroxisome proliferator-activated receptor delta (PPARd) signaling pathway - cell viability counter screen (AID 743213); details: PPARd-bla HEK293H viability, CellTiter-Glo luminescence, 17 h; viability change, negative = cytotoxic: at 62 µM (top of the series) unless noted; also: nearly all actives have a fitted effect of over 50% in size; as to viability change, negative = cytotoxic: % is scaled to controls: 0 for no effect and ±100 for the full control effect
Method in brief: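 Luminescence from CellTiter-Glo, added after the bla read and incubated 30 min at room temperature, gives viability of HEK293H PPARd-bla cells exposed to compounds for 17 h at 37 C with 300 nM L165041.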

[9] = qHTS assay to identify small molecule agonists of the farnesoid-X-receptor (FXR) signaling pathway - cell viability counter screen (AID 743218); details: FXR-bla HEK293T viability, CellTiter-Glo luminescence, 16 h; viability change, negative = cytotoxic: at 62.6 µM (top of the series) unless noted; also: nearly all actives have a fitted effect of over 45% in size
Method in brief: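 Luminescence from CellTiter-Glo, read after 30 min at RT, reports viability of GeneBLAzer FXR-UAS-bla HEK 293T cells treated 16 h with compounds in the wells used for the beta-lactamase reporter.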

[10] = biological target: Vitamin D3 receptor (Homo sapiens) (UniProt P11473); experiment: qHTS assay to identify small molecule agonists of the vitamin D receptor (VDR) signaling pathway (AID 743222; calls by dose curve); details: HEK293T VDR-UAS-bla, beta-lactamase FRET ratio, 16 h; activation: at 63.5 µM (top of the series) unless noted
Method in brief: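 Beta-lactamase reporter readout (LiveBLAzer B/G FRET, 2 h RT) in VDR-bla cells after 16 h compound treatment at 37C, 5% CO2; cells pre-incubated 4 h before pin transfer of DMSO solutions.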

[11] = qHTS assay to identify small molecule antagonists of the vitamin D receptor (VDR) signaling pathway - cell viability counter screen (AID 743225); details: VDR-bla HEK293T viability, CellTiter-Glo luminescence, 16 h; viability change, negative = cytotoxic: at 61 µM (top of the series) unless noted; also: nearly all actives have a fitted effect of over 50% in size
Method in brief: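 VDR-bla HEK 293T cells, 4 h pre-incubation at 37C, then compound plus 1-alpha,25-dihydroxyvitamin D3 (3 nM final) for 16 h. After the beta-lactamase FRET read, CellTiter-Glo was added to the same wells; luminescence after 30 min at room temperature.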

[12] = qHTS assay for small molecule agonists of the antioxidant response element (ARE) signaling pathway (AID 743202; active = well fitted activation curve with a large enough effect in the signal ratio in the repeat runs, not every such curve was filed as active; inconclusive = weak or mixed curves, or effect the other way; inactive = no such curve, though single readings can be large or run the other way; the % refers to the signal ratio); details: HepG2 ARE-bla reporter, beta-lactamase FRET, 16 h; activation: at 73.3 µM (top of the series) unless noted
Method in brief: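 Following a 16 h, 37 C exposure of reporter HepG2 cells (ARE-driven beta-lactamase, 2,000 cells/well) to compounds, FRET substrate was applied for 2 h at room temperature and fluorescence intensity recorded.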

[13] = biological target: Bile acid receptor (Homo sapiens) (UniProt Q96RI1); experiment: qHTS assay to identify small molecule antagonists of the farnesoid-X-receptor (FXR) signaling pathway (AID 743217; active = well fitted inhibition curve with a large enough effect in the signal ratio in the repeat runs, not every such curve was filed as active; inconclusive = weak or mixed curves, or effect the other way; inactive = no such curve, though single readings can be large or run the other way; the % refers to the signal ratio; as to activity change, negative = inhibition: % is scaled to controls: 0 for no effect and ±100 for the full control effect); details: HEK293T FXR-UAS-bla, beta-lactamase ratio, CDCA-stimulated, 16 h; activity change, negative = inhibition: at 62.6 µM (top of the series) unless noted
Method in brief: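 Read-out: beta-lactamase FRET fluorescence (LiveBLAzer B/G substrate, 2 h, room temperature) in GeneBLAzer FXR-UAS-bla HEK 293T cells. Compounds were co-dosed with 50 uM chenodeoxycholic acid (final) and incubated 16 h at 37 °C.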

[14] = biological target: Bile acid receptor (Homo sapiens) (UniProt Q96RI1); experiment: qHTS assay to identify small molecule agonists of the farnesoid-X-receptor (FXR) signaling pathway (AID 743220; active = well fitted activation curve with a large enough effect in the signal ratio in the repeat runs, not every such curve was filed as active; inconclusive = weak or mixed curves, or effect the other way; the % refers to the signal ratio); details: HEK293T FXR-UAS-bla, beta-lactamase FRET ratio, 16 h; activation: at 62.6 µM (top of the series) unless noted
Method in brief: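 FXR-UAS-bla HEK 293T cells carrying a UAS-driven beta-lactamase reporter were plated for 5 h at 37C/5% CO2, then exposed to DMSO-dissolved Tox21 10K compounds for 16 h at 37C. A LiveBLAzer B/G FRET substrate was loaded for 2 h at room temperature before fluorescence reading.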

[15] = qHTS assay to identify small molecule agonists of the vitamin D receptor (VDR) signaling pathway - cell viability counter screen (AID 743224); details: VDR-bla HEK293T viability, CellTiter-Glo luminescence, 16 h; activity change, negative = cytotoxicity: at 62.6 µM (top of the series) unless noted; also: nearly all actives have a fitted effect of over 50% in size
Method in brief: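 Cytotoxicity counter screen: VDR-bla cells, 16 h compound exposure at 37C, 5% CO2; CellTiter-Glo luminescence, 30 min RT, same wells as bla read.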
Potency is read from the fitted curve at half-maximal effect; tags tell the direction and shape of the fitted curve or compound fluorescence and quenching.

Sequence of UniProt Q96RI1 (Q96RI1 whole entry, looked up): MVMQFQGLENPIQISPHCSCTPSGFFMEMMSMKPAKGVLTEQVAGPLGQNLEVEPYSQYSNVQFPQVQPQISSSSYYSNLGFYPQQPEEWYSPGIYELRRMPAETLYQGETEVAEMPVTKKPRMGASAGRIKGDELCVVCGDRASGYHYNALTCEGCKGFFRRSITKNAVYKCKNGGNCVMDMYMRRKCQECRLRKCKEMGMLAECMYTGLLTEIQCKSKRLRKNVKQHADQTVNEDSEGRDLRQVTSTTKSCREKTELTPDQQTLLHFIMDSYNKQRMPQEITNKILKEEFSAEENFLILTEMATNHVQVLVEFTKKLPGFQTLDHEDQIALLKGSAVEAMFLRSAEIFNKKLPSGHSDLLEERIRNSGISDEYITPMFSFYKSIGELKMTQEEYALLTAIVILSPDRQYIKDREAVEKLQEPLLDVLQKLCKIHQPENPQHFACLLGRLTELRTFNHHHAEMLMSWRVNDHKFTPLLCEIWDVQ
Sequence of UniProt P37231 (P37231 whole entry, looked up): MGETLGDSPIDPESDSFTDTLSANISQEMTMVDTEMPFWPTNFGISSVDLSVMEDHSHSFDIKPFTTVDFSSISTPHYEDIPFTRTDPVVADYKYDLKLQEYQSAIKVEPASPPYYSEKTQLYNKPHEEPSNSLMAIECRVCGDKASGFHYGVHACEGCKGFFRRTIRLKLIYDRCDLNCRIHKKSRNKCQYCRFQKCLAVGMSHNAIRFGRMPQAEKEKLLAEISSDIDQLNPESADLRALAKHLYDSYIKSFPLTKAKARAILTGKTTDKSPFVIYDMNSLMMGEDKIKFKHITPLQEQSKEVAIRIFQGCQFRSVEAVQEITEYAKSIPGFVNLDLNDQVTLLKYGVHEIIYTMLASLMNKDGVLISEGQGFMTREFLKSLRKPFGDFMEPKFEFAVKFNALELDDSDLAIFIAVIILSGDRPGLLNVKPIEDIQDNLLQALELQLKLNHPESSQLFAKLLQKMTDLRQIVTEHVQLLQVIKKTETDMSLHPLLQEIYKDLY
Sequence of UniProt P11473 (P11473 whole entry, looked up): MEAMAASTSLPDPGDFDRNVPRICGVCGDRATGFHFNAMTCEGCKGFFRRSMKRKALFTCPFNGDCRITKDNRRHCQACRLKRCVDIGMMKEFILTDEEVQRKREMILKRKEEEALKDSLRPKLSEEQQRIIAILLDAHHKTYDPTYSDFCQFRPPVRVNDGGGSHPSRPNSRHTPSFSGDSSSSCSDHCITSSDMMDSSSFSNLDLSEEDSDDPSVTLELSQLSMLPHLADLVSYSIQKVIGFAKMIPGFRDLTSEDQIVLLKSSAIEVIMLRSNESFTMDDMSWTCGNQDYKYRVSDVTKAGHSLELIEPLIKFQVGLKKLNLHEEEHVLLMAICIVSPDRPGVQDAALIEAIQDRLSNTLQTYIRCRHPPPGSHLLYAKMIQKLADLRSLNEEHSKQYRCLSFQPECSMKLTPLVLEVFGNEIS

Row | Structure (SMILES) | Potency [1] | Potency [2] | activation [2] | Potency [3] | Potency [4] | Potency [5] | Potency [6] | Potency [7] | Potency [8] | Potency [9] | Potency [10] | Potency [11] | ratio activity, negative = inhibition [3] | Potency [12] | Potency [13] | activity change, negative = inhibition [13] | Potency [14] | activation [14] | Potency [15]
1 | Cc1c2ccccc2c(C)c2c1ccc1ccccc12 | active: 60.5 µM and active: 48.6 µM | inconclusive: 7.68 µM [activator, full curve, poor fit] | inconclusive: 7.78% | inconclusive: 54.4 µM [fluorescent, single point] and inconclusive: 61.6 µM [inhibitor] | inconclusive: 54.4 µM [cytotoxic] and active: 49 µM | inconclusive: 67.9 µM [cytotoxic, single point] | inconclusive: 61 µM [cytotoxic, single point] and inconclusive: 49 µM [cytotoxic, partial curve, poor fit] | active: 48.5 µM and active: 38.9 µM | inconclusive: 3.06 µM [cytotoxic, full curve, poor fit] and active: 21.9 µM | inconclusive: 15.3 µM [cytotoxic, partial curve, poor fit] and active: 21.9 µM | inconclusive: 3.85 µM [fluorescent, full curve, poor fit] and inconclusive: 13.8 µM [fluorescent, partial curve] | active: 43.2 µM and active: 19.5 µM | – | – | – | – | – | – | –
2 | COC(=O)C1=C(C)NC(C)=C(C(=O)OCC(C)C)C1c1ccccc1[N+](=O)[O-] (configuration not stated) | inconclusive: 30.6 µM [falling, partial curve] | inconclusive: 54.9 µM [rising, single point] | inconclusive: -2.32% | inconclusive: 24.5 µM | inconclusive: 21.9 µM [cytotoxic, full curve] | – | – | – | active: 21.9 µM and inactive | inconclusive: 26.6 µM [cytotoxic, partial curve, poor fit] | – | inconclusive: 49 µM [cytotoxic, single point] | inconclusive: -19.9% | inconclusive: 68.6 µM and active: 23.7 µM | inconclusive: 26.6 µM | inconclusive: -27.6% | inconclusive: 21.9 µM [activator] | inconclusive: 8.41% | inconclusive: 9.44 µM [cytotoxic, full curve]
